According to publication PMC4872721:
Results are given in words; binding and its absence hold for the method and conditions named. In cells and extracts the contact can be indirect. Some results given as binding are weak or reduced against the parent protein; the word gives no strength. Where a sequence is shown, tags or fusion partners need not be part of it.

Amino acid sequences for entries named in this document (tags omitted). A change or cut given only in a name is not applied to a line headed by its entry. Residues count along the entry.
UniProt Q16665: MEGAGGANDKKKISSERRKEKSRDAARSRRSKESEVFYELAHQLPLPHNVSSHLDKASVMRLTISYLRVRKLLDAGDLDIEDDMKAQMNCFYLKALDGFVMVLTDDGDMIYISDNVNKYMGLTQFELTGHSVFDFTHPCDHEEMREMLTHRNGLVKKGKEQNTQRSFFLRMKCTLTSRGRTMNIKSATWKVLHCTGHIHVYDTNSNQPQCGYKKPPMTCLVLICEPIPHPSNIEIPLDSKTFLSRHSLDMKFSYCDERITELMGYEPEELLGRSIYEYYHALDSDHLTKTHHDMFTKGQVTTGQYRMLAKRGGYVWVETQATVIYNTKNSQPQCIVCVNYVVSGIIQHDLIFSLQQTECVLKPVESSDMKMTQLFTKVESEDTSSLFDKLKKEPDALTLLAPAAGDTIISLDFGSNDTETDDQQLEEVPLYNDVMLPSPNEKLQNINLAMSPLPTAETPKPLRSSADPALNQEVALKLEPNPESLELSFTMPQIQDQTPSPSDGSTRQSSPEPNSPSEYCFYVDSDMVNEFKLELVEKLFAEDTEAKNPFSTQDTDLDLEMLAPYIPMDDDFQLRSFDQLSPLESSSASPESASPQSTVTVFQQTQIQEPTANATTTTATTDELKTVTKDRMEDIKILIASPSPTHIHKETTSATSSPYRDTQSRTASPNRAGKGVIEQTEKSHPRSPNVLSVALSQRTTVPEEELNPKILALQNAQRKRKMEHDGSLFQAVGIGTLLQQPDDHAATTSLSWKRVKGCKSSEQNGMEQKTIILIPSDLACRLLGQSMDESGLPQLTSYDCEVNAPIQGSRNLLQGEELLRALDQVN
GST-HIF-1α (531-826): residues 531-826 of Q16665
GST-HIF-1α (531-588): residues 531-588 of Q16665
GST-HIF-1α (575-786): residues 575-786 of Q16665
GST-HIF-1α (786-826): residues 786-826 of Q16665
UniProt Q99814: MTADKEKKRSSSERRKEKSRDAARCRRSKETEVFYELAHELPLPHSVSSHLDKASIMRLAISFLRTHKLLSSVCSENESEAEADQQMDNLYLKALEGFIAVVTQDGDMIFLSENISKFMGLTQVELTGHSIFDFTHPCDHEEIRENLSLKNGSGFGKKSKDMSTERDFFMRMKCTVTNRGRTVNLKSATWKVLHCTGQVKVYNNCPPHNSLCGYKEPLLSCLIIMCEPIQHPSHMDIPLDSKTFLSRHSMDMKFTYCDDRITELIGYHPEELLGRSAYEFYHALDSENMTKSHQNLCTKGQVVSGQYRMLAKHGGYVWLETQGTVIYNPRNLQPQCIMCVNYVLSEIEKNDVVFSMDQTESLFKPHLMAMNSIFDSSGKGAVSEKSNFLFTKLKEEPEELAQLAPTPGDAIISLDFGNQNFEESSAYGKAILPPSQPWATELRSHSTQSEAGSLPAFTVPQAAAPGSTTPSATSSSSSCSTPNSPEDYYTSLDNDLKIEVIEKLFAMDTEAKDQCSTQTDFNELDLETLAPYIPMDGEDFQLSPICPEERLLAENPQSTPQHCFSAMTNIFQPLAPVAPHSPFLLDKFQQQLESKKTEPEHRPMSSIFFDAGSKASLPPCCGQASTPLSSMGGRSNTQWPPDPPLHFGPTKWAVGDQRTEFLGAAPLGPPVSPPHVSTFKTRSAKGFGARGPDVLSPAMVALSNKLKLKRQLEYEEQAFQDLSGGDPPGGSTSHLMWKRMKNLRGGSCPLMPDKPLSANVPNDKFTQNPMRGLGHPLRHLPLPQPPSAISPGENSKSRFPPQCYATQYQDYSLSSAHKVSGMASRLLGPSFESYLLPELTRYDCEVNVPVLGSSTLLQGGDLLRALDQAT

T1: V5-epitope-tagged PRDX2 (peroxiredoxin 2) (human) (UniProt P32119)
T1 sequence: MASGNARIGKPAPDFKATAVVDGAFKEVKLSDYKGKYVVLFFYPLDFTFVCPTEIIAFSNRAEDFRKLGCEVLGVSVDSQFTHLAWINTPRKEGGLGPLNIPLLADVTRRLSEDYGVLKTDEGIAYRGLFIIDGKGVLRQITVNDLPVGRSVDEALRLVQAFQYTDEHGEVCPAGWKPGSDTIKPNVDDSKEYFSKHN

B1: V5-epitope-tagged PRDX2 (peroxiredoxin 2) (protein, UniProt P32119 1-198)
chain: T1 sequence
B2: V5-epitope-tagged PRDX4 (peroxiredoxin 4) (protein, UniProt Q13162 38-271)
chain: WETEERPRTREEECHFYAGGQVYPGEASRVSVADHSLHLSKAKISKPAPYWEGTAVIDGEFKELKLTDYRGKYLVFFFYPLDFTFVCPTEIIAFGDRLEEFRSINTEVVACSVDSQFTHLAWINTPRRQGGLGPIRIPLLSDLTHQISKDYGVYLEDSGHTLRGLFIIDDKGILRQITLNDLPVGRSVDETLRLVQAFQYTDKHGEVCPAGWKPGSETIIPDPAGKLKYFDKLN
B3: V5-epitope-tagged PRDX1 (peroxiredoxin 1) (protein, UniProt Q06830 1-199)
chain: MSSGNAKIGHPAPNFKATAVMPDGQFKDISLSDYKGKYVVFFFYPLDFTFVCPTEIIAFSDRAEEFKKLNCQVIGASVDSHFCHLAWVNTPKKQGGLGPMNIPLVSDPKRTIAQDYGVLKADEGISFRGLFIIDDKGILRQITVNDLPVGRSVDETLRLVQAFQFTDKHGEVCPAGWKPGSDTIKPDVQKSKEYFSKQK
B4: V5-epitope-tagged PRDX6 (peroxiredoxin 6) (protein, UniProt P30041 1-224)
chain: MPGGLLLGDVAPNFEANTTVGRIRFHDFLGDSWGILFSHPRDFTPVCTTELGRAAKLAPEFAKRNVKLIALSIDSVEDHLAWSKDINAYNCEEPTEKLPFPIIDDRNRELAILLGMLDPAEKDEKGMPVTARVVFVFGPDKKLKLSILYPATTGRNFDEILRVVISLQLTAEKRVATPVDWKDGDSVMVLPTIPEEEAKKLFPKGVFTKELPSGKKYLRYTPQP
B5: V5-epitope-tagged PRDX3 (peroxiredoxin 3) (protein, UniProt P30048 62-256)
chain: APAVTQHAPYFKGTAVVNGEFKDLSLDDFKGKYLVLFFYPLDFTFVCPTEIVAFSDKANEFHDVNCEVVAVSVDSHFSHLAWINTPRKNGGLGHMNIALLSDLTKQISRDYGVLLEGSGLALRGLFIIDPNGVIKHLSVNDLPVGRSVEETLRLVKAFQYVETHGEVCPANWTPDSPTIKPSPAASKEYFQKVNQ
B6: V5-epitope-tagged PRDX5 (peroxiredoxin 5) (protein, UniProt P30044 53-214)
chain: MAPIKVGDAIPAVEVFEGEPGNKVNLAELFKGKKGVLFGVPGAFTPGCSKTHLPGFVEQAEALKAKGVQVVACLSVNDAFVTGEWGRAHKAEGKVRLLADPTGAFGKETDLLLDDSLVSIFGNRRLKRFSMVVQDGIVKALNVEPDGTGLTCSLAPNIISQL

What was measured:
[1] = target: T1, V5-epitope-tagged PRDX2 (peroxiredoxin 2) (human); assay: co-IP; IP with anti-V5 antibody from whole cell lysate of PRDX2-V5-transfected HeLa cells exposed to 1% O2 for 24 h; modified RIPA buffer, overnight, protein A Sepharose; blot for HIF-1α
[2] = target: endogenous HIF-1α (hypoxia-inducible factor 1α) (human (endogenous in HeLa)) (UniProt Q16665); assay: co-IP; IP with anti-HIF-1α antibody from whole cell lysate of transfected HeLa cells exposed to 1% O2 for 24 h; modified RIPA buffer (50 mM Tris-HCl pH 7.5, 1 mM β-mercaptoethanol, 150 mM NaCl, 1% Igepal), overnight, protein A Sepharose; blot for V5
[3] = target: GST-HIF-1α (575-786) (human) (UniProt Q16665); assay: pull-down; purified GST-HIF-1α fusion proteins immobilised on glutathione-Sepharose beads, incubated overnight with HeLa whole cell lysate holding PRDX2-V5 or PRDX4-V5; washed three times; blot for V5; only the target purified
[4] = target: GST-HIF-1α (531-588) (human) (UniProt Q16665); assay: as above
[5] = target: GST-HIF-1α (531-826) (human) (UniProt Q16665); assay: as above
[6] = target: GST-HIF-1α (786-826) (human) (UniProt Q16665); assay: as above
[7] = target: endogenous HIF-2α (hypoxia-inducible factor 2α) (human (endogenous in HeLa)) (UniProt Q99814); assay: co-IP; IP with anti-HIF-2α antibody from whole cell lysate of transfected HeLa cells exposed to 1% O2 for 24 h; modified RIPA buffer, overnight, protein A Sepharose; blot for V5

| Molecule | binding [1] | binding [2] | binding [3] | binding [4] | binding [5] | binding [6] | binding [7] |
| --- | --- | --- | --- | --- | --- | --- | --- |
| endogenous HIF-1α (hypoxia-inducible factor 1α) (from UniProt Q16665 1-826) | binds |  |  |  |  |  |  |
| B1 |  | binds | binds | binds weakly | binds | no binding | binds |
| B2 |  | binds weakly | binds |  | binds |  | binds |
| B3 |  | binds |  |  |  |  | binds weakly |
| B4 |  | binds weakly |  |  |  |  | no binding |
| B5 |  | no binding |  |  |  |  | binds weakly |
| B6 |  | no binding |  |  |  |  | no binding |
